Out of some 270,000 compounds screened, about 5,800 (2.1%) were called active. Inconclusive results, whose numbers are uncertain, are shown with a selection of clear calls. Calls follow the shape of the dose curve; as a rule, active = well fitted inhibition curve with a large enough effect; inconclusive = small, poorly fitted or top-dose-only effect; inactive = flat fitted curve, though single readings scatter. Potencies of inconclusive entries are doubtful fits and often do not repeat.
What follows are compounds tested against Microtubule-associated protein tau (Homo sapiens) (UniProt P10636) (assay: qHTS for Inhibitors of Tau Fibril Formation, Thioflavin T Binding). Conditions: recombinant tau K18 P301L (four-repeat tau fragment), heparin-induced fibrillization, ThT fluorescence; series mostly up to 57.4 µM.
Procedure, shortened: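 Recombinant human tau K18 fragment […] carrying P301L, 15 uM unlabeled plus 0.24 uM Alexa 594-labeled, was fibrillized with 20 uM heparin in 100 mM sodium acetate pH 7 for 6 hr at 37 C; 30 uM ThT fluorescence read after 1 hr.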
Also: nearly all actives have a fitted effect of over 55% in size.
Potency is read from the fitted curve at half-maximal effect; tags tell the direction and shape of the fitted curve.

Chain of UniProt P10636 (P10636 whole entry, looked up, the tested form may be a part): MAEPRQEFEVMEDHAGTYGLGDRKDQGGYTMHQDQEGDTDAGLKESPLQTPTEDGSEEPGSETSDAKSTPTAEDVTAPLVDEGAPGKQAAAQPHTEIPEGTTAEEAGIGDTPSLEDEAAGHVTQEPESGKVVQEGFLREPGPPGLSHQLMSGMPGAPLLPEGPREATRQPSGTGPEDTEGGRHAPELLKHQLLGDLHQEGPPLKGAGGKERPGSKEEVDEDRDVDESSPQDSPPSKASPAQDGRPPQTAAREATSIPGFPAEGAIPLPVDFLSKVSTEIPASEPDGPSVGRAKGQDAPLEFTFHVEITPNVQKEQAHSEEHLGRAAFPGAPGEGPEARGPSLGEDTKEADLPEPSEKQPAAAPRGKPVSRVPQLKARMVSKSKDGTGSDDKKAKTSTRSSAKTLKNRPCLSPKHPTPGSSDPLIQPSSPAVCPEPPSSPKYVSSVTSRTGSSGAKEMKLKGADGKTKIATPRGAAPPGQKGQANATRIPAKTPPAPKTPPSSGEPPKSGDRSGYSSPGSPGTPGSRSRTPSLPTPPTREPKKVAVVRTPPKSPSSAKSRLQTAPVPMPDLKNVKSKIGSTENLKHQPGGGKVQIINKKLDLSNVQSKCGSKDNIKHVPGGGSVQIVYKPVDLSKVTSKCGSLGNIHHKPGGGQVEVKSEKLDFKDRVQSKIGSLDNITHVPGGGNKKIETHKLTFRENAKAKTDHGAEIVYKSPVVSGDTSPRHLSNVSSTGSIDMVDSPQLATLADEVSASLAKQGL

Row | Compound | Potency
1 | c1ccc(N2CCN(c3ccc4nncn4n3)CC2)nc1 | inconclusive: 8.91 µM [inhibitor, partial curve]
2 | CC1(C)Cc2ccccc2C2CC(O)C(=O)N21 (configuration not stated) | inconclusive: 20 µM [inhibitor, single point]
3 | COc1ccc(CCNC(=O)Cn2cc(C(=O)c3ccc(Cl)cc3)c(=O)c3ccc(C)nc32)cc1OC | inconclusive: 20 µM [inhibitor, partial curve]
4 | FC(F)(F)c1cccc(-n2cc(-c3ccccc3)c3c(N4CCCCC4)ncnc32)c1 | inactive
5 | O=C1CC(N2CCC(c3nc4ccccc4o3)CC2)C(=O)N1c1ccc(Cl)c(C(F)(F)F)c1 (configuration not stated) | inactive
6 | COc1ccc2c(c1)n([O-])c1c([n+]2=O)CCC1 | inactive
7 | COc1ccc(/C=N/NC(=O)c2ccc(O)cc2)cc1CN1CCCc2ccccc21 | inconclusive: 8.91 µM [inhibitor, partial curve]
8 | CC(C)N1CCN(Cc2ccc3c(c2)Cc2ccccc2-3)CC1CCO (configuration not stated) | inactive
9 | Fc1ccc(-n2c(Cc3ccccc3)nnc2SCc2nc(-c3cccs3)no2)cc1 | inconclusive: 28.2 µM [inhibitor, single point]
10 | CN1/C(=C/C(=O)CSc2ccccc2C(=O)O)C(C)(C)c2ccccc21 | inconclusive: 2.82 µM [inhibitor, partial curve, poor fit]
11 | CCn1ccc(C(=O)NC2=NCCS2)n1 | inconclusive: 39.8 µM [inhibitor, single point]
12 | CCn1c(SCC(=O)Nc2ccc(C)cc2)nc2nc3c(cc2c1=O)COC(C)(C)C3 | inconclusive: 25.1 µM [inhibitor, single point]
13 | Cc1nn(-c2ccc(N3CCCCC3)nn2)c(C)c1CCC(=O)NCc1ccc(F)cc1 | inconclusive: 22.4 µM [inhibitor, single point]
14 | CCOC(=O)c1ccc(N2C(=O)CC(N(Cc3ccc4c(c3)OCO4)C(=O)Nc3ccccc3)C2=O)cc1 (configuration not stated) | inactive
15 | COc1cc(-c2nnc(SCc3cc(=O)oc4cc(C)ccc34)o2)cc(OC)c1OC | inconclusive: 15.8 µM [inhibitor, partial curve, poor fit]
16 | COc1cccc(CNC(=O)CC2C(=O)NCCN2Cc2ccoc2)c1OC (configuration not stated) | inconclusive: 28.2 µM [inhibitor, single point]
17 | O=S(=O)(Nc1ccc(-c2ccc(N3CCCCC3)nn2)cc1)c1ccc(OC(F)(F)F)cc1 | inconclusive: 3.16 µM [inhibitor, full curve]
18 | CCCn1cc(S(=O)(=O)c2cccc(Cl)c2)c(=O)c2cc(F)c(N3CCOCC3)cc21 | inactive
19 | Cc1ccc(S(=O)(=O)/N=C2/NC(=O)/C(=C/c3ccc(Br)o3)S2)cc1 | inconclusive: 25.1 µM [inhibitor, single point]
20 | C/C(=N\NC(=O)CC1(C)OCCO1)c1cccs1 | inactive
21 | O=C(COC(=O)COc1ccc2ccccc2c1)NCC(F)(F)F | inactive
22 | O=C(NCc1ccco1)c1ccc(S(=O)(=O)c2cccc(S(=O)(=O)N3CCOCC3)c2)cc1 | inactive
23 | Cc1cccc(NC(=O)CN(C)S(=O)(=O)c2ccc3c(c2)c(=O)n(C)c(=O)n3C)c1 | inactive

Row | Compound | Potency
24 | NNC(=O)c1nc[nH]c1C(=O)Nc1ccccn1 | inactive
25 | CCCCCC(=O)N1CCN(c2ccc(C(C)=O)cc2F)CC1 | inconclusive: 14.1 µM [inhibitor, partial curve]
26 | COc1ccccc1NC(=O)C1=C(C)NC(SCC(=O)c2ccc(C)cc2)=C(C#N)C1c1ccco1 (configuration not stated) | inconclusive: 14.1 µM [inhibitor, partial curve]
27 | Cc1c(NC(=O)c2cc3nc(-c4ccc(Cl)cc4)cc(C(F)(F)F)n3n2)c(=O)n(-c2ccccc2)n1C | inconclusive: 12.6 µM [inhibitor, partial curve]
28 | COc1cc(C)ccc1OCCSc1nnc(-c2ccc(C)cc2)o1 | inconclusive: 6.31 µM [inhibitor, partial curve]
29 | Cc1ccc(-n2nnnc2-c2cnc3ccc(Cl)cc3c2-c2ccccc2)cc1 | inconclusive: 0.141 µM [inhibitor, full curve, poor fit]
30 | O=C(OCc1cc(=O)n2c3c(sc2n1)CCCC3)c1cccc(NC(=O)c2ccccc2F)c1 | inconclusive: 0.891 µM [inhibitor, full curve]
31 | O=C(NCC(=O)N(Cc1cccs1)C(C(=O)NC1CCCC1)c1ccncc1)c1ccco1 (configuration not stated) | inconclusive: 28.2 µM [inhibitor, single point]
32 | CCOc1ccc(NC(=O)CSC2=Nc3ccccc3C3=NC(CC(=O)NCc4ccc5c(c4)OCO5)C(=O)N23)cc1 (configuration not stated) | inconclusive: 28.2 µM [inhibitor, single point]
33 | Cc1ccc(C)c(-n2nnnc2SCC(=O)c2ccc3c(c2)NC(=O)CO3)c1 | inactive
34 | CCN(CC)c1ccc(/C=N/n2nnnc2N)c(O)c1 | inconclusive: 28.2 µM [inhibitor, single point]
35 | CCn1c(SCC(=O)N/N=C/c2c[nH]c3ccccc23)nnc1-c1ccc(C(C)(C)C)cc1 | inconclusive: 22.4 µM [inhibitor, single point]
36 | CCOc1ccccc1C(=O)Nc1ccc(S(=O)(=O)N2CCCCC2c2cccnc2)cc1 (configuration not stated) | inactive
37 | COc1ccccc1C(=O)Nc1nnc(S(=O)(=O)N2CCCCCC2)s1 | inconclusive: 11.2 µM [inhibitor, partial curve]
38 | Nc1ccccc1C#Cc1ccccc1 | inconclusive: 22.4 µM [inhibitor, partial curve]
39 | FC(F)(F)c1ccc(Oc2ccc3ccccc3c2Br)nc1 | inconclusive: 20 µM [inhibitor, single point]
40 | Cc1ccc(-c2ccc(=O)n(CC(=O)Nc3ccc(F)c(Cl)c3)n2)cc1C | inconclusive: 39.8 µM [activator, partial curve, poor fit]
41 | Cc1nc(SCC(=O)c2ccccc2)c(C#N)c(-c2ccco2)c1C(=O)NCc1ccco1 | inconclusive: 11.2 µM [inhibitor, partial curve]
42 | COC(=O)c1ccc(-n2c(C)cc(-c3csc(NC(=O)c4ccc(S(=O)(=O)N(C)C)cc4)n3)c2C)cc1 | inconclusive: 7.94 µM [inhibitor, partial curve]
43 | Cc1nc2ccc(NC(=O)N(C(C)C)C(C)C)cc2s1 | inconclusive: 31.6 µM [inhibitor, single point]
44 | C/C(=N\N=C\c1ccccc1F)c1nnn(-c2nonc2N)c1C | inconclusive: 7.08 µM [inhibitor, partial curve]
45 | Cc1cc(C)nc(NC(=NCCc2c[nH]c3ccccc23)NC(=O)c2ccco2)n1 | inconclusive: 12.6 µM [inhibitor, partial curve]
46 | CC(C)CC(=O)NC(=S)Nc1ccc(Cl)cn1 | inactive

Row | Compound | Potency
47 | COC(=O)c1ccc(NC(=O)CN2C(=O)CSC2=O)cc1 | inconclusive: 0.398 µM [activator, partial curve, poor fit]
48 | COc1cc(/C=C2\C(=O)N(c3ccc(S(N)(=O)=O)cc3)N=C2C)ccc1OC(=O)c1ccco1 | inconclusive: 10 µM [inhibitor, partial curve]
49 | CCOC(=O)c1ccc(NC(=O)COC(=O)Cc2csc(-c3ccccc3)n2)cc1 | inconclusive: 2.51 µM [inhibitor, partial curve]
50 | CCOC(=O)C1=C(C)Nc2nc(=S)[nH]n2C1c1ccc(Cl)cc1 (configuration not stated) | inconclusive: 39.8 µM [inhibitor, single point]
51 | Cc1cccc(/C=N\NC(=O)c2csnn2)c1 | inactive
52 | Nc1ccc(Sc2ccc([N+](=O)[O-])cc2)cc1 | inconclusive: 12.6 µM [inhibitor, partial curve]
53 | COc1cc(/C=N\NC(=O)CNC(=O)C2COc3ccccc3O2)ccc1O (configuration not stated) | inconclusive: 15.8 µM [inhibitor, partial curve]
54 | O=C(/C=C/c1ccc2ccccc2n1)c1cc(Br)ccc1O | inconclusive: 12.6 µM [inhibitor, partial curve]
55 | CN1CCN(NS(=O)(=O)c2ccc(Cl)s2)CC1 | active: 17.8 µM
56 | CCN1/C(=C2\C(=O)N(C)C(=S)N2C)C=Cc2cc(OC)ccc21 | inactive
57 | CCc1ccc(S(=O)(=O)/N=C2\C=CC(=O)c3ccccc32)cc1 | active: 17.8 µM
58 | Cc1cccc(N2C(=O)/C(=C/c3cccnc3)SC2=S)c1 | inconclusive: 35.5 µM [inhibitor, partial curve]
59 | COc1ccc(-c2cc(C(=O)N3CCc4ccccc4C3)no2)cc1 | inconclusive: 14.1 µM [inhibitor, partial curve, poor fit]
60 | COc1ccc(C)c2sc(N(Cc3cccnc3)C(=O)CCc3ccccc3)nc12 | inconclusive: 10 µM [inhibitor, partial curve, poor fit]
61 | N#CC(Sc1ccccn1)c1ccc(Cl)cc1Cl (configuration not stated) | inconclusive: 17.8 µM [inhibitor, partial curve]
62 | [O-][n+]1onc2c1CCC(=N/O)/C2=N\Nc1ccccc1 | active: 14.1 µM
63 | COc1ccc(-c2oc3cc(O)c(OC)c(O)c3c(=O)c2OC)cc1 | inconclusive: 22.4 µM [inhibitor, partial curve]
64 | CC(C)=CCC/C(C)=C/CC/C(C)=C/CC/C(C)=C/CC1=C(C)C(=O)c2ccccc2C1=O | inconclusive: 25.1 µM [inhibitor, partial curve]
65 | CN(C)/C=N/c1nc2nccc(-c3ccc(F)cc3)n2n1 | inactive
66 | CCOC(=O)c1sc(SCC(=O)Nc2ccc(N(C)C)cc2)nc1N | active: 14.1 µM
67 | O=C(O)CN1CCN(Cc2ccc(F)cc2Cl)C1=O | inconclusive: 28.2 µM [inhibitor, partial curve]
